Data as given in PubChem BioAssay AID360 (National Center for Advancing Translational Sciences (NCATS), 2006).
Hit rate of the full screen: of about 48,000 compounds, about 550 (1.1%) were called active. Another 4% or so got no clear call; they are omitted. Rule as the data show it: active = potency below about 15 µM; inconclusive = mostly about 16 µM to 33 µM; inactive = weaker than that. Some of the results follow.

target: Lysosomal acid glucosylceramidase (Homo sapiens) (UniProt P04062); test: Glucocerebrosidase; settings: purified enzyme, resorufin glucoside fluorescence (screen aimed at inhibitors), 20 min;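 also: the screen sought inhibitors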
UniProt P04062, sequence (P04062 whole entry, looked up): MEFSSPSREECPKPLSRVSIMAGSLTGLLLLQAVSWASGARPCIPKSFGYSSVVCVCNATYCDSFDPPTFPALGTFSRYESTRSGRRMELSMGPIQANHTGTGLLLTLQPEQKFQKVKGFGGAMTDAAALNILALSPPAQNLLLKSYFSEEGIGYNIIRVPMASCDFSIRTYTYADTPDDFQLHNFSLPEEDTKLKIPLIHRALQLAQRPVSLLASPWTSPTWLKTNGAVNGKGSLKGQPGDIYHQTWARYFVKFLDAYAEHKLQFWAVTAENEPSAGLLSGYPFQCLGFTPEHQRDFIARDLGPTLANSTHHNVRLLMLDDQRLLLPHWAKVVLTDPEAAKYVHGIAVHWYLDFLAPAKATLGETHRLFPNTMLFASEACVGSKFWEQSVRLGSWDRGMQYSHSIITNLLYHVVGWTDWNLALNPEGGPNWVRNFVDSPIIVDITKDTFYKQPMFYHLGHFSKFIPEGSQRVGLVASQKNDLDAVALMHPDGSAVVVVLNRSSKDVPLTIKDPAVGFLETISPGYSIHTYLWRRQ
Outline: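 Normal human glucocerebrosidase (0.2 nM final) was assayed with resorufin β-D-glucopyranoside (30 uM final) in 50mM citric acid/KH2PO4, 10mM sodium taurocholate, 0.01% tween-20, pH 5.9. Compounds were titrated; fluorescence (Ex 548, Em 600) read after 20 min at RT.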
Potency is read from the fitted curve at half-maximal effect.

Potency, inactive:
Cn1cnnc1SCC(=O)N1CCC(Cc2ccccc2)CC1
Cc1cc(NC(=O)CSc2nnc(-c3ccc4c(c3)OCCO4)o2)no1 > 76.9 µM
O=C(CSc1nnc(-c2cccs2)o1)OCc1ccccc1 > 76.9 µM
CC1=C(C)CC(C(=O)N2CCN(Cc3ccccc3)CC2)C(C(=O)O)C1 (centres undefined) > 76.9 µM
CC1CC(c2ccccc2)n2nc(NC(=O)c3cccs3)nc2N1 (centres undefined) > 76.9 µM
Cc1ccc(S(=O)(=O)NCCCNC(=O)c2ccccc2)cc1 > 76.9 µM
Oc1ccc(Br)cc1/C=N/n1cnc2ccccc21 > 76.9 µM
COc1cc(C)nc(SCC(N)=O)n1 > 76.9 µM
COc1ccc(O)c(C2NC(CC(C)C)(C(=O)O)C3C(=O)N(Cc4ccccc4)C(=O)C23)c1 (centres undefined) > 76.9 µM
CCCC(=O)Nc1nnc(CC(=O)N2CCCC2)s1 > 76.9 µM
CCOC(=O)C1CCCN(C(=O)c2sc3nc(-c4ccc(F)cc4)cn3c2C)C1 (centres undefined) > 76.9 µM
CCOC(=O)N1CCC(NC(=O)c2cccn3c(=O)c4cc(Br)ccc4nc23)CC1 > 76.9 µM
Cc1cc(C)cc(N(C(C)C(=O)Nc2c(C)n(C)n(-c3ccccc3)c2=O)S(C)(=O)=O)c1 (centres undefined) > 76.9 µM
CCCCN(C)Cc1c(C)[nH]c2c(Cl)cccc2c1=O > 76.9 µM
CN1CCN(C(=O)CCC(=O)c2ccc(F)cc2)CC1 > 76.9 µM
Cc1cccc(N2CCN(C(=O)C34CC5CC(CC(C5)C3)C4)CC2)c1C > 76.9 µM
CCN(CC(=O)NCc1ccccn1)S(=O)(=O)c1ccc(Cl)cc1 > 76.9 µM
COC(=O)c1c(NC(=O)CCc2ccc(C)o2)sc(C)c1C
Cc1cccc(C)c1NC(=O)COC(=O)c1nonc1N > 76.9 µM
c1cncc(Nc2nc(-c3cccs3)cs2)c1 > 76.9 µM
O=C(CCCc1c[nH]c2ccccc12)N1CCCCCC1 > 76.9 µM
NC(=O)c1ccccc1NC(=O)CCCN1C(=O)CCC1=O > 76.9 µM
COc1ccccc1NC(=O)CN1C(=O)CCS(=O)(=O)c2ccccc21 > 76.9 µM
CCCS(=O)(=O)N1CCCC(C(=O)N2CCN(c3ccccn3)CC2)C1 (centres undefined) > 76.9 µM
O=C1c2ccccc2C(O)(Cc2ccccc2)N1C1CCCCC1 (centres undefined) > 76.9 µM
Cc1cccc(CSc2nncc(=O)[nH]2)c1 > 76.9 µM
COc1ccc(C(=O)N2CCCN(C)CC2)cc1S(=O)(=O)N1CCCc2ccccc21 > 76.9 µM
O=C(NCc1cccs1)c1cccc(S(=O)(=O)N2CCCCC2)c1 > 76.9 µM
O=C(CCN1CCN(c2ccccc2F)CC1)Nc1ccc2c(c1)OCO2 > 76.9 µM
COC(=O)c1[nH]c2cc(C)ccc2c1NC(=O)CN1CCN(c2ccccc2OC)CC1 > 76.9 µM
COC(=O)Cc1csc(N)n1 > 76.9 µM
COC(=O)C1=C(CN2CCCc3ccccc32)NC(=O)NC1c1ccc(F)cc1 (centres undefined) > 76.9 µM
CN(C)c1ccc(/C=C/c2ccncc2)cc1 > 76.9 µM
Cc1cccc(N2C(=O)N(c3ccccc3C)C3CS(=O)(=O)CC32)c1 (centres undefined) > 76.9 µM
Cc1cc(=O)n2nc(N3CCC(C(=O)NCc4cccnc4)CC3)sc2n1 > 76.9 µM
O=c1oc2ccccc2c2c1ncn2C1CCCCC1 > 76.9 µM
O=C(CSc1ccccc1)Nc1cccnc1 > 76.9 µM
O=C(Cn1nnc2ccccc2c1=O)N1CCCc2ccccc21 > 76.9 µM
CC(OC(=O)C1CCN(S(=O)(=O)c2ccccc2)CC1)C(=O)Nc1ncc(Cl)cc1Cl (centres undefined) > 76.9 µM
O=C(c1ccco1)N1CCN(S(=O)(=O)c2ccc(Oc3ccccc3)cc2)CC1 > 76.9 µM
COc1cc2c(cc1OC)C(=NCCC(=O)O)NC(C)(C)C2 > 76.9 µM
O=c1[nH]cnc2nc(-c3ccccc3)c(-c3ccccc3)nc12 > 76.9 µM
COCc1nc2ccccc2n1Cc1ccc(Br)cc1 > 76.9 µM
Clc1cc(Cl)c2nc(N3CCOCC3)sc2c1 > 76.9 µM
CCOC(=O)CSc1nc2c(sc3ccccc32)c(=O)n1CCCN1CCOCC1
Cc1cc(N2CCOCC2)nc(SCC(=O)c2ccc(Cl)cc2)n1 > 76.9 µM
COc1ccc(NC(=O)N(C2CCCCC2)C(C)c2cccnc2)c(OC)c1 (centres undefined) > 76.9 µM
Cc1onc(-c2ccccc2Cl)c1C(=O)N1CC(C)OC(C)C1 (centres undefined) > 76.9 µM
CCCn1nnc(NC(=O)COc2ccccc2Cl)n1 > 76.9 µM
CCCCSc1c(C)c2cc3c(cc2[nH]c1=O)OCO3 > 76.9 µM
CCC(=O)Nc1ccc(S(=O)(=O)Nc2cccc(C)c2)cc1OC > 76.9 µM
COc1ccccc1S(=O)(=O)Cc1ccc(C(=O)NC(C)c2ccc3c(c2)OCCO3)o1 (centres undefined) > 76.9 µM
COc1ccc(N2CCN(C(=O)CNC(=O)Cn3c(C)cc4ccccc4c3=O)CC2)cc1 > 76.9 µM
Cc1ccc(-c2nc(C#N)c(NCc3cccc4c3OCO4)o2)cc1 > 76.9 µM
O=C(C1CCC(=O)N1Cc1ccccc1Cl)N1CCN(c2ccc(F)cc2)CC1 (centres undefined) > 76.9 µM
CCN(CC)c1ccc(NC(=O)c2ccccc2F)cc1 > 76.9 µM
O=C(NCc1ccc(F)cc1)C1CCCN(S(=O)(=O)c2cccnc2)C1 (centres undefined) > 76.9 µM
O=C1NC(c2cccnc2)C(C(=O)c2cccs2)C(O)(C(F)(F)F)N1 (centres undefined) > 76.9 µM
Cc1onc(-c2ccccc2)c1C(=O)Nc1ccccc1N1CCOCC1 > 76.9 µM
O=C(Nc1ccc(F)cc1F)c1cccnc1 > 76.9 µM
COCCn1c(N)c(S(=O)(=O)c2cccs2)c2nc3ccccc3nc21 > 76.9 µM
CC1CN(C)C(C)CC1NCc1ccc2c(c1)OCO2 (centres undefined) > 76.9 µM
Cc1cc2nc(C(F)(F)F)[nH]c(=O)n2n1 > 76.9 µM
CCOC(=O)c1sc2ncn(C(C)C(=O)OCC)c(=O)c2c1C (centres undefined) > 76.9 µM
CN=c1scc(C)n1/N=C/c1ccc(O)cc1O > 76.9 µM
COc1ccc(CCNC(=O)C2CCCN(S(=O)(=O)c3cccc4nonc34)C2)cc1OC (centres undefined) > 76.9 µM
CCOc1cc(C(=O)Nc2ccc(S(=O)(=O)N3CCOCC3)cc2)cc(OCC)c1OCC > 76.9 µM
CS(=O)(=O)Nc1ccc(-c2n[nH]c(=S)n2-c2ccccc2)cc1 > 76.9 µM
COc1ccc(CNCCNC(=O)c2ccco2)c(OC)c1OC > 76.9 µM
CCN(CC)S(=O)(=O)c1ccc(-c2nnco2)cc1 > 76.9 µM
CC1(C)Cc2c(sc3c2c(=O)n(Cc2ccccc2)c2nncn32)CO1 > 76.9 µM
CCOC(=O)Nc1c(C(=O)OC)[nH]c2cc(OC)ccc12 > 76.9 µM
COc1ccc(C)cc1S(=O)(=O)Nc1ccc(F)c(Cl)c1
O/N=C1\CC(O)Cc2nonc21 (centres undefined) > 76.9 µM
CCn1c(CNc2ccc(F)cc2)nnc1SCCN1CCCCC1 > 76.9 µM
COC(=O)N(C)c1nc2ccccc2s1 > 76.9 µM
Cc1ccc(CN2C(=O)CCC2C(=O)NCCN(CC(C)C)CC(C)C)cc1 (centres undefined) > 76.9 µM
CCCOc1ccc(/C(O)=C2/C(=O)C(=O)N(CCCOC)C2c2cccnc2)cc1 (centres undefined) > 76.9 µM
O=C(O)Cc1nc2nc3c(c(=O)n2[nH]1)CCCC3 > 76.9 µM
Cn1cnnc1SCC(=O)NCc1cccc(C(F)(F)F)c1 > 76.9 µM
CN1C=CC2=C(C#N)C(N)C(C#N)(C#N)C(c3ccccc3)C2C1 (centres undefined) > 76.9 µM
COC(=O)Cc1c(C)c2c(O)cc(C)cc2oc1=O > 76.9 µM
O=C(OCn1nnc2ccccc2c1=O)C1=COCCO1 > 76.9 µM
O=C(CSc1nnc(CNC(=O)c2ccccc2F)o1)c1ccccc1 > 76.9 µM
CC1(NC(=O)C23CC4CC(CC(C4)C2)C3)CCS(=O)(=O)C1 (centres undefined) > 76.9 µM
O=C(CCC(=O)c1cccs1)Nc1ccccc1F > 76.9 µM
O=C(COc1ccccc1Cl)NCc1ccco1 > 76.9 µM
CCC(=O)N1CCc2cc(S(=O)(=O)CCC(=O)NCCC3=CCCCC3)ccc21 > 76.9 µM
O=C1CC(c2ccccc2)n2nc(NC(=O)c3ccccn3)nc2N1 (centres undefined) > 76.9 µM
Nc1nc(NCc2c(F)cccc2Cl)nn1-c1ccccc1 > 76.9 µM
CC(C)(C)C1CCc2onc(C(=O)NCc3ccc(F)cc3)c2C1 (centres undefined) > 76.9 µM
c1coc(-c2nc3nc4ccccc4nc3n2CC2CCCO2)c1 (centres undefined) > 76.9 µM
Cc1nc2ccc(F)cc2cc1C(=O)NCc1ccco1 > 76.9 µM
CS(=O)(=O)c1ccc(N2CCN(C3CC(=O)NC3=O)CC2)cc1 (centres undefined) > 76.9 µM
